Publication PMC4336329 (PLoS ONE, 2015)
In all, about 310,000 compounds went through this assay and about 14,000 (4.5%) showed an effect of 50% or more. Effects have a minus sign here. This is one part of the list.

Molecular target: human ether-à-go-go-related gene (hERG) potassium channel (human, UniProt Q12809)
Assay: primary screen, population patch clamp on CHO cells stably expressing hERG
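Note: peak tail current of the secondary pulse compared with the same well before compound.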

Chain of human ether-à-go-go-related gene (hERG) potassium channel (Q12809 whole entry, looked up): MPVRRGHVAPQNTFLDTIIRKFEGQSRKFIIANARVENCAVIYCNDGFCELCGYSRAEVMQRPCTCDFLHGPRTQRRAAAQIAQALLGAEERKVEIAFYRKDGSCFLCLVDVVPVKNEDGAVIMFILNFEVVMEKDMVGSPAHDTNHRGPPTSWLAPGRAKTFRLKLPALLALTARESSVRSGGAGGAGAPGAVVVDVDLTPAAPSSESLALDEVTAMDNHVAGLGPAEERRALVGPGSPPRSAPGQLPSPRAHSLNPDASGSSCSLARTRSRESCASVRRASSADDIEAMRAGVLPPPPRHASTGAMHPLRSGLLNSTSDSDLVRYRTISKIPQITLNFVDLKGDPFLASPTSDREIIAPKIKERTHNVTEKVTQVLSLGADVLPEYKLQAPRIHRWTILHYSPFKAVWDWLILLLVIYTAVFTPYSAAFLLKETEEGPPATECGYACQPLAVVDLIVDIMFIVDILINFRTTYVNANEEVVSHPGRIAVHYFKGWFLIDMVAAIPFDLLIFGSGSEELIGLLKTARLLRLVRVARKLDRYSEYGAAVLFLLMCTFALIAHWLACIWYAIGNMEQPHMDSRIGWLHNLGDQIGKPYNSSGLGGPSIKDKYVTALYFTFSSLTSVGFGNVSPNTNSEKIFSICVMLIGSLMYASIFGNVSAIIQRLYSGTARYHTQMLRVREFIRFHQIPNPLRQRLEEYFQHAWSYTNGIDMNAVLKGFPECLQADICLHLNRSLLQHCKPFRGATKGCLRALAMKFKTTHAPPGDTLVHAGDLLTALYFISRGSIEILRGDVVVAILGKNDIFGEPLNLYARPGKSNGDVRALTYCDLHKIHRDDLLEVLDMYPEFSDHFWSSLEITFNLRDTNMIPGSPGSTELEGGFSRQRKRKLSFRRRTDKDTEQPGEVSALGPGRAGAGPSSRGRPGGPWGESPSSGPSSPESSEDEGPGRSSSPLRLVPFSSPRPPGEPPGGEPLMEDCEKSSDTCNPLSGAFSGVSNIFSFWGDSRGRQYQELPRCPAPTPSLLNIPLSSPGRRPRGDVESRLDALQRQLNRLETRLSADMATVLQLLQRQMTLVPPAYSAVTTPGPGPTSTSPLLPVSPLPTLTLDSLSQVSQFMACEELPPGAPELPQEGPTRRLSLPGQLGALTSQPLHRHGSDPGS

| Structure (SMILES) | hERG current change (%, negative = inhibition) at 10uM [%] |
| --- | --- |
| O=C1CC(SCc2nc3ccccc3[nH]2)C(=O)N1c1ccc(F)c(Cl)c1 (stereo not shown) | -17.5 |
| S=C(Nc1ccc2c(c1)OCCO2)Nc1ccc2c(c1)OCO2 | 21.4 |
| CC(Sc1nc2c(cc1C#N)CCCCC2)C(=O)O (stereo not shown) | 10.6 |
| Cc1ccc(NC(=O)Nc2ccccc2C(=O)NCc2ccccc2)cc1 | -2.74 |
| CNC(=O)CCCCCNS(=O)(=O)c1ccc(C)cc1 | -19.6 |
| CCOc1ccc(Cn2nnc(C(=O)Nc3ccc(OC)cc3OC)c2N)cc1 | 12 |
| CCN(CC)CCNC(=O)C1(O)c2cc(Br)ccc2NC(=O)N1c1c(F)cccc1F (stereo not shown) | 14.6 |
| CC(C)C(=O)NC(=O)COC(=O)/C=C/c1cccs1 | 30.2 |
| CCOC(=O)C(=O)Nc1ccc(OCc2ccccc2)cc1 | 20.2 |
| CCn1c(C)nc2cc(S(=O)(=O)N3CCCCC3)ccc21 | -11.6 |
| CC(C(=O)O)N1C(=O)CSC1=S (stereo not shown) | 10.4 |
| O=C(NCC(=O)N1CCN(C(=O)c2ccco2)CC1)c1ccc(Br)cc1 | -53.9 |
| Cc1cc(C)c(-c2csc(NC(=O)CCCc3nc4ccccc4c(=O)[nH]3)n2)c(C)c1 | 3.79 |
| COc1ccc(N2C(=O)CSC23C(=O)Nc2ccccc23)cc1 (stereo not shown) | 1.55 |
| O=C(CSc1ncn[nH]1)NCc1ccc(Cl)cc1 | 14.2 |
| Cc1cc(C(=O)N2CCc3ccccc3C2)no1 | 2.72 |
| O=C(NCCN1CCOCC1)c1ccc(CSc2nc3ccncc3n2Cc2ccc(F)cc2)cc1 | -8.35 |
| CCC/C=C1/CCCOC(C(=O)NCc2ccc(S(C)(=O)=O)cc2)(C(F)(F)F)C1 (stereo not shown) | -1.19 |
| COC(=O)c1ccccc1NC(=O)/C=C/c1cc(OC)c(OC)c(OC)c1 | 1.15 |
| COc1cc(C2NC(=O)NC(c3ccccc3)=C2C(C)=O)c(Br)cc1OCC(N)=O (stereo not shown) | 18.9 |
| COC(=O)C1=C(c2ccc(OC)cc2)OC(=O)C1(C)C | -2.92 |
| COc1cc(/C=N/NC(N)=O)cc(Br)c1OCc1ccc(C)cc1 | 14.3 |

| Structure (SMILES) | hERG current change (%, negative = inhibition) at 10uM [%] |
| --- | --- |
| O=C(Nc1nccs1)c1ccc(CSc2nnnn2-c2ccccc2)cc1 | -25.6 |
| COc1cc(C(=O)NN(CCC#N)C2=NS(=O)(=O)c3ccccc32)cc(OC)c1OC | 13.7 |
| CCOC(=O)N1CCC(NC(=O)CCC(=O)N2CCOc3ccccc32)CC1 | 8.3 |
| CCN(CC)S(=O)(=O)c1ccc(C(=O)NCCN(C)C)cc1.Cl | 10.5 |
| Cc1sc2ncnc(Oc3ccc(-n4ccnc4)cc3)c2c1C | -68.4 |
| CS(=O)(=O)O.O.Oc1ccc2c3c1O[C@H]1c4oc5ccccc5c4C[C@@]4(O)[C@@H](C2)N(CC2CC2)CC[C@]314 | -76.9 |
| O=C(N1CCOCC1)N1CCC(NC(=O)C23CC4CC(CC(C4)C2)C3)CC1 | 24.8 |
| COc1ccc(C(=O)N2CCN(c3ccc(F)cc3)CC2)cc1S(=O)(=O)NC1CC1 | -59.2 |
| Cc1ccccc1NC(=S)N1CCOCC1 | 7.34 |
| Nc1nonc1-c1noc(-c2ccccc2)n1 | 15.7 |
| Cc1cnc(C(=O)NCCc2ccc(Cl)cc2)cn1 | -15.8 |
| Cc1cccc(S(=O)(=O)Nc2nc3ccccc3nc2NCc2ccco2)c1 | -0.911 |
| Cc1csc(NC(=O)C2CC(=O)N(Cc3ccco3)C2)n1 (stereo not shown) | 20.8 |
| Cc1ccc(-c2[nH]nc3c2C(c2ccoc2)C(C#N)=C(N)O3)cc1C (stereo not shown) | 1.83 |
| CC(=O)Oc1cccc(N2C(=O)c3ccc(C(=O)Nc4c[nH]c(=O)[nH]c4=O)cc3C2=O)c1 | 23.1 |
| COc1ccc(NC(=O)C(=O)NCCN2CCN(C(=O)C(c3ccccc3)c3ccccc3)CC2)cc1 | -20.8 |
| CC(C)C(OC(=O)c1cccs1)C(=O)NC1CCCCC1 (stereo not shown) | -13.8 |
| COc1nc(-c2ccccc2)ccc1-c1noc(-c2ccccc2F)n1 | 25.7 |
| O=C(NCc1ccccc1)C1=C[C@@H](c2coc3ccccc3c2=O)C[C@@H](OCc2ccc(CO)cc2)O1 | -33.7 |
| COc1c(Cl)cc(Cl)cc1C(=O)Nc1ccc(CN2CCCCC2)cc1 | -65.1 |
| COC(=O)[C@@]1(Cc2ccc(OC)cc2)[C@@H]2[C@@H](CC(=O)[C@H]2CC(=O)C(=O)N(C)C)CN1C(=O)c1ccccc1 | -42.2 |
| Cn1c(=O)[nH]c(=O)c2c1nc(CN1CCN(c3ccccc3F)CC1)n2CCc1ccccc1 | -13.4 |

| Structure (SMILES) | hERG current change (%, negative = inhibition) at 10uM [%] |
| --- | --- |
| O=C(NCC1CCCCC1)c1cccc(-c2ccc(O)cc2)c1 | 12.1 |
| COc1ccc(CCC(=O)Nc2cc(Cl)ccc2OC)cc1 | -13.3 |
| COc1ccccc1CC(=O)Nc1ccc(OC)c(OC)c1 | 13.9 |
| Cc1nn(C)c(C)c1CN(C)S(=O)(=O)c1ccc2ccccc2c1 | -30.4 |
| O=C1CCn2nc(-c3ccc(Cl)cc3)cc2N1 | -7.37 |
| O=C1NC(c2ccc(Cl)cc2)Nc2ccccc21 (stereo not shown) | -23.5 |
| O=C(CSc1ccc(C(F)(F)F)cn1)Nc1ccccc1 | -0.305 |
| CCc1ccc(-c2cc(C)no2)cc1S(=O)(=O)N1CCN(c2ccc(F)cc2)CC1 | 7.09 |
| Cc1cccc(OCC(=O)N2CCN(Cc3ccc4c(c3)OCO4)CC2)c1.O=C(O)C(=O)O | -16.7 |
| O=C(CN1CCCCCC1)NCc1ccccc1 | 10.1 |
| O=C(N/N=C/c1ccccc1[N+](=O)[O-])c1cnccn1 | 17.8 |
| COc1cccc(/C=N/NC(=O)c2cnccn2)c1O | -17.1 |
| O=C1NC(=O)/C(=C\c2ccc(OCc3cnc(Cl)s3)cc2)S1 | 19.9 |
| Cc1ccc(/C=C2\SC(=S)N(c3cccnc3)C2=O)cc1 | 18.9 |
| CCOC(=O)c1cc(-c2ccc([N+](=O)[O-])cc2)nc2c1c(=O)[nH]c(=O)n2Cc1ccccc1 | 11.9 |
| COc1cc(-c2nnc(COc3ccc4cc(Br)ccc4c3)o2)cc(OC)c1OC | 16.2 |
| COc1ccc(CNC(=O)C2CCN(C(=O)Cc3ccccc3)CC2)cc1 | -13.5 |
| O=C(COc1ccc(F)cc1Cl)Nc1cccc(S(=O)(=O)N2CCCCCC2)c1 | 9.05 |
| C/C(N)=C(/C#N)C(=O)COC(=O)CC12CC3CC(CC(C3)C1)C2 | -8.16 |
| O=[N+]([O-])c1ccc(CSc2nnc(SCc3ccccc3)s2)cc1 | -19.2 |
| O=C(Nc1ccc(-c2nnc(-c3ccccc3)o2)cc1)C1CCCO1 (stereo not shown) | -13.3 |
| Cc1ccc(SC(C)C(=O)Nc2ccccc2-c2ccccc2)cc1 (stereo not shown) | 2.2 |

| Structure (SMILES) | hERG current change (%, negative = inhibition) at 10uM [%] |
| --- | --- |
| Cc1ccc(CNC(=O)C2CCCN(S(=O)(=O)c3c(C)noc3/C=C/N(C)C)C2)cc1 (stereo not shown) | 0.141 |
| CCCN(CC1CC1)C(=O)CSc1ncnc2sc(C)c(C)c12 | -30.4 |
| CCCn1c(N)c(N(CCOC)C(=O)c2ccccc2F)c(=O)[nH]c1=O | 9.64 |
| Nc1ccc(C(=O)N/N=C/c2ccccc2)cc1 | 7.02 |
| CC(C)c1cc(C(C)C)c(S(=O)(=O)N2CCNCC2)c(C(C)C)c1 | -0.58 |
| COCCCn1c(=O)c2sccc2n2c(CCCC(=O)NCc3ccc(OC)cc3)nnc12 | -21 |
| COc1ccc(Cl)cc1Nc1nc(C)nc2c1nnn2Cc1ccccc1 | 11.6 |
| CS(=O)(=O)NCCCNc1c(Cl)cccc1[N+](=O)[O-] | -4.43 |
| CC(C)=CCc1c(O)cc2c(c1O)C(=O)CC(c1ccccc1)O2 (stereo not shown) | 11.7 |
| COc1ccc(CNC(=O)c2cc(SC)ccc2Cl)cc1OC | 2.15 |
| COc1cc(OC)c2cc(C(=O)N/N=C/c3ccccc3O)[nH]c2c1 | 6.07 |
| CCCOc1ccc(NC(=O)C2CC(=O)N3CCCN=C3S2)cc1 (stereo not shown) | -11 |
| O=C(COC(=O)COc1ccccc1)NCc1ccco1 | -8.6 |
| CCOC(=O)N1CCN(C(=O)C2CCC(=O)N(Cc3ccc(Cl)cc3)C2)CC1 (stereo not shown) | -40.5 |
| Cc1[nH]c2ccccc2c1C(=O)CSC(=S)N1CCOCC1 | 9.65 |
| COc1ccc(/C=C\C(=O)NCC(=O)N/N=C/c2ccc(O)cc2O)cc1 | 5.16 |
| CC(C)(C)C1CCC2(CC1)NC(=S)N(c1ccccc1)N2 (stereo not shown) | -12 |
| O=C(N/N=C/c1ccc([N+](=O)[O-])o1)c1ccncc1 | -11.2 |
| Cc1ccc2c(c1)C(=O)c1ccccc1CS2=O (stereo not shown) | -31.2 |
| O=C(NNC(=O)c1ccncc1)Nc1cccc([N+](=O)[O-])c1 | 14.4 |
| N=c1c2c3c(sc2nc2n1CCCCC2)CCCC3 | -45.2 |
| C=CCN(C(=O)c1csnn1)C(C(=O)NCc1ccc(F)cc1)c1ccccc1 (stereo not shown) | -10 |
